According to PubChem BioAssay (NCI):
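Assay format: 96-well plates, 48-hour exposure. The concentration for 50% growth inhibition is given as GI50. TGI is the concentration that stops growth completely.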

test system: NCI-H322M lung; assay: NCI anticancer screen, dose series, 48 h

Row | Compound | TGI | GI50
1 | CC(C)c1cc(C(C)C)c(Cl)c(Cl)c1O (tested in a mixture with another compound) | > 100 µM | 
2 | CCOc1cc(/C=C/C(=O)CC(=O)/C=C/c2ccc(OC(=O)CNCCN(CC)CC)c(OCC)c2)ccc1OC(=O)CNCCN(CC)CC | 8.35 µM | 3.05 µM
3 | O=C(NN1C(=O)C(Cl)C1c1c(O)ccc2ccccc12)c1ccccc1O (configuration not stated) | > 100 µM | 
4 | CC1CCC2c3c([nH]c4ccccc34)C3C(=O)N(c4ccccc4)C(=O)C3C2C1 (configuration not stated) | > 250 µM | 
5 | O=C(Nc1cccc(-n2cc(-c3ccncc3)c(-c3ccc(O)c(Cl)c3)n2)c1)Nc1ccc(Cl)c(Cl)c1 | 9.71 µM | 2.5 µM
6 | CO/C(=N\N=C(/c1ccccc1)C(F)(F)F)c1ccncc1 | > 100 µM | 
7 | CCN(CCNc1ccc(C)c2sc3cc(Cl)ccc3c(=O)c12)CC(C)(C)O | 23.7 µM | 6.64 µM
8 | COC(=O)[C@]1(C)[C@H]2C[C@H]3O[C@H]4[C@H](O)[C@@H](O)OC(CC(O)C(C5=CC(=O)OC5)C(C5=CC(=O)OC5)C(O)CC56CCCCC7[C@@H](C)[C@H](C[C@H]8[C@](C)(C(=O)OC)[C@H](O)CC[C@]78C)O[C@H]([C@@H](O)[C@H](O)O5)[C@H]6O)(CCCCC([C@@H]3C)[C@]2(C)CC[C@@H]1O)[C@H]4O (some centres not stated) | 0.404 µM | 
9 | CC(=O)OC1COC(Oc2c(C)c3c4c(c2O)[C@@H](C)CC[C@@H]4[C@@H](C)C[C@H]3C=C(C)C)C(O)C1O (some centres not stated) | 27.4 µM | 13.6 µM
10 | COc1ccc(C(=O)/C=C/c2ccc(OCc3ccccc3)c(OC)c2)cc1OC | 51.4 µM | 3.44 µM
11 | COc1cccc2c1[C@H]1OC(=O)NC1CCCCC2 (some centres not stated) | > 100 µM | 
12 | NCC(Cc1ccccc1)P(=O)(O)O (configuration not stated) | > 100 µM | 
13 | O=C([O-])C1([n+]2c(-c3ccccc3)cc(-c3ccccc3)cc2-c2ccccc2)CC1 | > 100 µM | 
14 | O=C(Nc1nc2c(s1)CCc1c-2c(Br)n(Cc2ccccc2)c1Br)c1ccccc1 | > 100 µM | 3.63 µM
15 | O=C(O)C1=C(C(=O)O)Oc2ccccc2O1 | > 100 µM | 
16 | CC(=O)c1c(O)c2c([nH]c1=O)CCCC2 | 51.3 µM | 
17 | O=C1c2ccccc2-c2c1c1ccc([N+](=O)[O-])cc1c(=O)n2CCCCl | > 100 µM | 50.4 µM
18 | N=C(N)c1ccc(N=Nc2c(O)ccc3cc(O)ccc23)cc1 | > 100 µM | 
19 | CC(N)=O.[Cl][Pt][Cl].[NH-]c1ccn(C2OC(CO)C(O)C2O)c(=O)n1 (configuration not stated) | > 100 µM | 
20 | Cc1ccccc1CNc1c2ccccc2nc2ccccc12 | 5.41 µM | 2.06 µM
21 | NC(N)=N/N=C/c1c(-c2ccc(Cl)cc2)nc2sc(Cl)cn12 | 3.02 µM | 
22 | N#Cc1c(N)nc2n[nH]c(N)c2c1-c1ccccc1 | > 71.4 µM | 
23 | c1ccc2c(c1)[O][Sn][O]2 | > 150 µg/mL | 71.8 µg/mL
